We go through 71 molecules from PubChem BioAssay AID488969 (Vanderbilt High Throughput Screening Facility, 2010).

Whole data set: some 110,000 compounds, median “z-score” near -0.1, cut for the highest 2% near 2. The list shows a part of the results. Activity calls are given as the source filed them.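 How the source made its calls: active means z-score in the third read window above 3 or below -3; inactive means the rest.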

In the assay the target is Metabotropic glutamate receptor 8 (Rattus norvegicus) (UniProt P70579). The experiment in a line: rat mGluR8 modulators via GIRK flux, primary screen, cell-based, thallium flux, HTS (AID 488969). The conditions noted are these: HEK293 rat mGluR8, GIRK (G protein-gated inwardly rectifying potassium channel) thallium flux, FluoZin2; at 10 µM; stronger effect = higher value; submaximal glutamate (EC20) added with thallium.
Chain of UniProt P70579 (P70579 whole entry, looked up): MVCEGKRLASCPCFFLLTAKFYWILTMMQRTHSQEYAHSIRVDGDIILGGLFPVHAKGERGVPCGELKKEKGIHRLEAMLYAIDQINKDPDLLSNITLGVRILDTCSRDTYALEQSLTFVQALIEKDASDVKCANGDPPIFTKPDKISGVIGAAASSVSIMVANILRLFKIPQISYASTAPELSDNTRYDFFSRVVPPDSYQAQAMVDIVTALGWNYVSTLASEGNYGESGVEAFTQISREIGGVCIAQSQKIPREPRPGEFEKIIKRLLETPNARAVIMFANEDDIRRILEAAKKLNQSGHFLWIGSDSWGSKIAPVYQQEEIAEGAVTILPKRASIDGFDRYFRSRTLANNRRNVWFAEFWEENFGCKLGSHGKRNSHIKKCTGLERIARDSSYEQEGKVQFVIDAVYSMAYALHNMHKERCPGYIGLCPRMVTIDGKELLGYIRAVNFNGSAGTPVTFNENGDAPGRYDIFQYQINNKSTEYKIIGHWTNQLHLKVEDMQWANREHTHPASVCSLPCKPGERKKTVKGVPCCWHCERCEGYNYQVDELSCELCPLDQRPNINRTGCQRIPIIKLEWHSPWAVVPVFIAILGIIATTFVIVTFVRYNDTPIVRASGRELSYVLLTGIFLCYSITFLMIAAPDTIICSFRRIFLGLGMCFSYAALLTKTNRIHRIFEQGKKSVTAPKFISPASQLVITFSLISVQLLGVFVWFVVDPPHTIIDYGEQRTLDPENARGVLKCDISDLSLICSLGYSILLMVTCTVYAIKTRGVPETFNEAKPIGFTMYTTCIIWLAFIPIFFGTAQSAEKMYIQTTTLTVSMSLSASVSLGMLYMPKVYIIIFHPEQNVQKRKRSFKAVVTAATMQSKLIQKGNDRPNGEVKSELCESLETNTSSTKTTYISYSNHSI
For the molecule `Cc1nc(-c2ccccc2)nc2[nH]c(C(C)C)cc(=O)c12`, the z-score is -0.572.
The result for `O=C(CSc1ccc(Cl)cc1)c1ccco1` reads 0.233.
Molecule `O=C(C1CCN(CCCc2ccccc2)CC1)N1CCCCC1` registered a z-score of -0.145.
The molecule `COc1ccc(CCNC(=O)CN2CCC(C(N)=O)CC2)cc1` registered a z-score of 0.63.
The same measure for `O=C(Nc1cc2c(cc1Br)OCCO2)c1ccco1`: 0.101.
`CC(=O)C1=C(C)NC(C)=C(C(C)=O)C1c1cn(-c2ccccc2)nc1-c1cccs1` registered a z-score of 0.325.
In turn, `Cc1nc2sccn2c(=O)c1Br` came in with a z-score of 0.0767.
`COc1cc(C(=O)Nc2cc(C(F)(F)F)ccc2Cl)cc(OC)c1OC` yielded a z-score of -0.494.
In turn, `CC(C)c1ccc(N=c2c([N+](=O)[O-])nn(-c3ccc4c(c3)OCCO4)n2O)cc1` yielded a z-score of 0.06.
The result for `O=C(c1ccccc1F)N(Cc1ccc(F)cc1)C1CCS(=O)(=O)C1` (stereo unspecified) reads 0.106.
`CCOC(=O)c1c(NC(NC(=O)C(C)C)C(Cl)(Cl)Cl)sc2c1CCC2` (stereo unspecified): the z-score is -0.163.
The same measure for `O=C(CSc1ncnc2scc(-c3ccccc3)c12)NCc1ccc2c(c1)OCO2`: -0.339; for `CC(C)(C)c1cc(C(=O)N2CCc3ccccc32)ccn1`: -0.218; for `C=CCn1c(Cc2c(C)[nH]c3ccccc23)nnc1SCC(=O)NCc1ccc(F)cc1`: -0.996.
The same measure for `CCCCCCOC(=O)C(C#N)c1nc2ccccc2nc1N1CCCCC1` (stereo unspecified): -0.00593; for `COc1ccc(CC(=O)NC(C)(C)C)cc1S(=O)(=O)N1CCOCC1`: -0.00904; for `COC(=O)c1cc(Cl)c(NC(=O)/C=C/c2ccc(Cl)cc2Cl)cc1OC`: -0.186.
Turning to `CCOc1ccc(C2=[N+]([O-])C(C)(C)N(O)C2(C)C)cc1`, the z-score is 0.0752.
The result for `COc1ccccc1C(=O)NCCc1nc2ccccc2[nH]1` reads 0.0888; that for `O=C(Nc1ccc2c(c1)OCO2)c1ccc(Cl)nc1`, -0.782.
Consider `CC(C)C(NS(=O)(=O)c1ccc2c(c1)OCCO2)C(=O)NCCc1ccccn1` (stereo unspecified), for which the z-score was 0.0748.
The result for `Cc1ccc(S(=O)(=O)Nc2nncs2)cc1` reads 0.0436; that for `CCCCNC(=O)CS(=O)Cc1nc(-c2cccc(C)c2)oc1C` (stereo unspecified), -0.163; that for `Nc1cc(=O)[nH]c(SCC(=O)N2CCc3ccccc3C2)n1`, -0.182.
The same measure for `O=C(NC(=S)Nc1ccccc1N1CCCC1)c1ccc(-c2cccc([N+](=O)[O-])c2)o1`: active: 5.71; for `Cn1cc(S(=O)(=O)N2CCN(c3ccc(F)cc3)CC2)c(=O)n(C)c1=O`: 0.112.
With `Nc1c(-c2ccc(Cl)cc2)nnn1-c1ccccc1`, the z-score is -0.144.
Turning to `CCS(=O)(=O)N1CCC(C(=O)NCc2cccs2)CC1`, the z-score was found to be 0.227.
Consider `CCN(CC)CCNC(=O)C1CCC(=O)N1CCc1ccccc1` (stereo unspecified), for which the z-score is -0.348.
The result for `Cc1occc1C(=O)NNC(=O)c1ccc(F)cc1` reads 0.382; that for `Cc1cc([N+](=O)[O-])nn1CCCC(=O)N1CCN(c2ccccc2)CC1`, -0.0396; that for `CCOC(=O)CNC(=O)CNC(=O)c1ccc(OCC(C)C)cc1`, 0.297.
Regarding `CCOc1ccc(C(NC(=O)/C=C/c2ccco2)c2ccc(OC)c(OC)c2)cc1` (stereo unspecified), the z-score stood at 0.073.
The result for `O=C(c1cccnc1)N1CCC(c2nc3ccccc3[nH]2)CC1` reads 0.91.
The same measure for `Cc1ccccc1Cn1cnc2c([N+](=O)[O-])c(C)c(C)cc21`: -1.13; for `Cc1cccc(Cl)c1OCCCCn1ccnc1`: 0.296.
The result for `CCn1c(CSCc2ccc(F)cc2)nnc1SCC(=O)N1CCN(c2ccccc2)CC1` reads -0.278; that for `COc1ccc(CC(NC(=O)c2ccccc2)C(=O)NCC(=O)O)cc1` (stereo unspecified), 0.374.
`O=C(NCc1nc(-c2ccccc2)no1)c1cccs1` returned a z-score of -0.0454.
The result for `Cc1cccc(OCC(=O)Nc2ccc(N3CCN(S(C)(=O)=O)CC3)cc2)c1C` reads 0.0465; that for `CCOc1ccccc1C(=O)N1CCCCC1C` (stereo unspecified), -2.42; that for `C=C(C)Cn1c(N(CCO)Cc2ccccc2)nc2c1c(=O)[nH]c(=O)n2C`, -0.125.
The same measure for `N#CC1(C#N)C(C(N)=O)C1c1ccccc1` (stereo unspecified): -0.103.
For the molecule `O=C1c2ccccc2NC2(CCCCC2)N1N=C1CCCCC1`, the z-score is -0.197.
The same measure for `O=S(=O)(Cc1ccccc1)N1CCC(c2nc(-c3cccs3)no2)CC1`: -0.342.
The result for `COc1ccc(/C=C/C(=O)c2ccc[nH]2)c(OC)c1OC` reads -0.661; that for `ClCc1nnc(-c2ccccc2)o1`, -0.143.
The result for `O=C(c1cccc(C(F)(F)F)c1)N1CCC(O)(CS(=O)(=O)Cc2ccc(Cl)cc2)CC1` reads 0.366.
In turn, `O=c1c(F)cn(C2CCCO2)c(=O)n1Cc1c(F)cccc1Cl` (stereo unspecified) displayed a z-score of -0.104.
The result for `COc1ccc(C(C(=O)NC2CCCC2)N(C(=O)c2ccoc2C)c2cc(C)cc(C)c2)cc1` (stereo unspecified) reads -0.442; that for `O=S(=O)(c1cccc2c(S(=O)(=O)N3CCCC3)cccc12)N1CCCC1`, 0.19.
For the molecule `CC1(c2ccc(Cl)cc2)NC(=O)N(CC(=O)NCc2cccs2)C1=O` (stereo unspecified), the z-score was found to be 0.0849.
The same measure for `CC1CCN(C(=O)CCNS(=O)(=O)c2ccccc2)CC1`: -0.297; for `COC(=O)C1CCN(S(C)(=O)=O)CC1`: -0.211; for `Cc1ccc(O)c(C2=Nc3ccccc3N=C(c3ccco3)C2)c1`: -0.147.
The same measure for `COc1ccc2[nH]cc(C3N4CC5(C)CN3CC(C)(C4)C5=O)c2c1` (stereo unspecified): 1.24.
The same measure for `COc1cc(C(=S)N2CCOCC2)ccc1OC(=O)c1cc([N+](=O)[O-])c(C)c([N+](=O)[O-])c1`: 0.117.
On to `COc1ccc(C(=O)N(CC2CCCO2)C(C(=O)NC2CCCC2)c2ccc(Cl)cc2)cc1OC` (stereo unspecified), for which the z-score was -0.0674.
The result for `Cc1nn(Cc2c(F)c(F)c(F)c(F)c2F)c(C)c1NC(=O)c1cccc(COc2ccccc2Cl)c1` reads -0.784.
The same measure for `Cc1cc(C)n(-c2ccc(Cl)c(C(=O)OCC(N)=O)n2)n1`: -0.673; for `Cc1n[nH]c(C)c1CCC(=O)N/N=C/C=C/c1ccccc1`: -0.227; for `Cc1ccc2nc(SCC(=O)Nc3cc(C(F)(F)F)ccc3N3CCOCC3)[nH]c2c1`: -0.336.
The same measure for `CS(=O)(=O)c1ccccc1COC(=O)Nc1ccc(Cl)cc1`: -0.294; for `CC(C)Oc1ccc(OCCCN2CCCCCC2)cc1`: -0.0757.
The molecule `Cc1ccc(C)c(NS(=O)(=O)c2ccc3c(c2)Cc2cc(S(=O)(=O)Nc4cc(C)ccc4C)ccc2-3)c1` returned a z-score of -0.189.
The same measure for `CC1=CC(C)(C)N(S(=O)(=O)c2ccc(F)cc2)c2ccc(C)cc21`: 1.47; for `NCCCCCc1nnc(SC/C=C/c2ccccc2)o1`: 0.881; for `Cc1ccc(NC(=O)c2cccs2)cc1S(=O)(=O)Nc1cccc(Cl)c1`: 0.176.
The same measure for `CC(=O)Nc1ccc(S(=O)(=O)N2CCN(c3ccccn3)CC2)cc1`: -0.0184; for `CC1CCN(c2ncnc3ccccc23)CC1`: -0.308.
The same measure for `CC(=C/c1ccccc1)/C=N/Nc1nc(N2CCCCC2)nc(N2CCCCC2)n1`: -0.266.
